Experimental data: publication PMC4336329 (PLoS ONE, 2015)
In all, about 310,000 compounds went through this assay and about 14,000 (4.5%) showed an effect of 50% or more. Effects have a minus sign here. The list shows a part of the results.

Target: human ether-à-go-go-related gene (hERG) potassium channel (human, UniProt Q12809)
Experiment: primary screen, population patch clamp on CHO cells stably expressing hERG
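Also: peak tail current of the secondary pulse compared with the same well before compound.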

Sequence of human ether-à-go-go-related gene (hERG) potassium channel (Q12809 whole entry, looked up): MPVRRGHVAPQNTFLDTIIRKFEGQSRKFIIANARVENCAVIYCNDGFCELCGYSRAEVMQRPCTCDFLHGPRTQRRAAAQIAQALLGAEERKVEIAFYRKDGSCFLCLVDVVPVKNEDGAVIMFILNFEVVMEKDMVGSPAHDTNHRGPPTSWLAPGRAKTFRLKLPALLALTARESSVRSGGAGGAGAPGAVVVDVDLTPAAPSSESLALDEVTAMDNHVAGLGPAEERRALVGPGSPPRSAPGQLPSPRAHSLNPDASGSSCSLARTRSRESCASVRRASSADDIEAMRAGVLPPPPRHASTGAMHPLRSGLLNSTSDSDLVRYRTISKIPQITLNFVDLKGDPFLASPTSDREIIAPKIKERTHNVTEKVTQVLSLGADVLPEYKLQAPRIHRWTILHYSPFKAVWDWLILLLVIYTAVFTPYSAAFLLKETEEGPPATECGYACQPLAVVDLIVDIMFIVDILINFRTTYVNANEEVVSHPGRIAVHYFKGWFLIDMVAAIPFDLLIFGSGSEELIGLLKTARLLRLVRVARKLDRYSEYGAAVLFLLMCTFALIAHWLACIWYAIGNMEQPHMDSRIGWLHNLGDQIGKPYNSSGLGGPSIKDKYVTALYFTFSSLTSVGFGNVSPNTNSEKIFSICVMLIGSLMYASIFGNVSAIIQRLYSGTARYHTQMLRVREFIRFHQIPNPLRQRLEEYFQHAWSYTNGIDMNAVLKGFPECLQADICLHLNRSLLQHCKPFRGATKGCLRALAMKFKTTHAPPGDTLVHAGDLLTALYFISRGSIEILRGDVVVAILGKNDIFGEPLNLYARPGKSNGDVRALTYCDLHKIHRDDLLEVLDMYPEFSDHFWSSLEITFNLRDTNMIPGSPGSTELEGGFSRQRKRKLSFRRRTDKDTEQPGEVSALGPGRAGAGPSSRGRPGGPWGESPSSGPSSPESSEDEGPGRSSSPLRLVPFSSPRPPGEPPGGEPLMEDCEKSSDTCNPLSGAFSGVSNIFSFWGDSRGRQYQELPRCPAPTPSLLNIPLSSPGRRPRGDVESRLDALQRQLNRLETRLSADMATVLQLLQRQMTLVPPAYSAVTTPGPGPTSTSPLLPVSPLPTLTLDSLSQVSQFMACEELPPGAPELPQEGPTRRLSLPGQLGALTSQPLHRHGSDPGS

Question: Which “hERG current change (%, negative = inhibition) at 10uM” value does the source give for CCCCCn1c(Sc2nc3ccccc3s2)nc2c1c(=O)[nH]c(=O)n2C here?
Answer: -39.3%

Question: For CC(Cc1ccccc1)N1C(=O)c2ccccc2C1=O (centres unmarked), which “hERG current change (%, negative = inhibition) at 10uM” value is on record?
Answer: -2.85%

Question: How did the “hERG current change (%, negative = inhibition) at 10uM” value turn out when CCOc1ccc(N(CC(=O)NCCSc2ccccn2)S(C)(=O)=O)cc1 was run?
Answer: 6.19%

Question: For O=C(OCn1nnc2ccccc2c1=O)c1ccco1, which “hERG current change (%, negative = inhibition) at 10uM” value is on record?
Answer: -5.88%

Question: With CC(C)CC(=O)N1CCN(C(=O)c2ccco2)CC1 as the molecule, how does the “hERG current change (%, negative = inhibition) at 10uM” value read?
Answer: 10.7%

Question: How did the “hERG current change (%, negative = inhibition) at 10uM” value turn out when COc1ccc(-c2nc(CS(=O)(=O)CC(=O)NCc3cccc(Br)c3)c(C)o2)cc1 was run?
Answer: -31.2%

Question: For Cc1ccc(CNCCc2ccc(F)cc2)s1, which “hERG current change (%, negative = inhibition) at 10uM” value is on record?
Answer: -5.62%

Question: For CCn1c(SCC(=O)N/N=C/c2ccc(C)s2)nc2ccccc21, which “hERG current change (%, negative = inhibition) at 10uM” value is on record?
Answer: -20.7%

Question: CSCCC(NC(=O)c1ccccc1Br)C(=O)NC(C)CCc1ccccc1 (centres unmarked) was tested. Which “hERG current change (%, negative = inhibition) at 10uM” value did it give?
Answer: 18.6%

Question: For COC(=O)/C(=C(O)\C=C\c1ccccc1[N+](=O)[O-])c1nc2ccccc2[nH]1, which “hERG current change (%, negative = inhibition) at 10uM” value is on record?
Answer: 12.4%

Question: How did the “hERG current change (%, negative = inhibition) at 10uM” value turn out when Cc1ccc(NC(=S)NCc2ccc(S(N)(=O)=O)cc2)cc1Cl was run?
Answer: 18.2%

Question: Which “hERG current change (%, negative = inhibition) at 10uM” value does the source give for CN(Cc1ccccc1)c1nc(-c2cccc([N+](=O)[O-])c2)nc2ccccc12 here?
Answer: 3.02%

Question: How did the “hERG current change (%, negative = inhibition) at 10uM” value turn out when COC(=O)/C(N=Nc1cccc(C(F)(F)F)c1)=C(\C)O was run?
Answer: -13.7%

Question: How did the “hERG current change (%, negative = inhibition) at 10uM” value turn out when O=C(NCCCNC(=O)c1ccco1)c1ccco1 was run?
Answer: 0.119%

Question: O=C(Nc1cccc(O)c1)c1ccc(C(=O)c2ccccc2)o1 was tested. Which “hERG current change (%, negative = inhibition) at 10uM” value did it give?
Answer: -9.95%

Question: Which “hERG current change (%, negative = inhibition) at 10uM” value does the source give for COc1ccc(NC(=O)Nc2ccc(Br)cn2)cc1OC here?
Answer: -6.12%

Question: Which “hERG current change (%, negative = inhibition) at 10uM” value does the source give for CN(Cc1ncc[nH]1)C(=O)CC1C(=O)NCCN1Cc1c(F)cccc1Cl (centres unmarked) here?
Answer: 5.59%

Question: How did the “hERG current change (%, negative = inhibition) at 10uM” value turn out when Cc1ccccc1OCc1nnc(SCc2nc3ccccc3c(=O)[nH]2)n1C was run?
Answer: 12.9%

Question: Which “hERG current change (%, negative = inhibition) at 10uM” value does the source give for CNC(=O)CCC(=O)Nc1ccc(C)cc1 here?
Answer: 4.78%

Question: For NC(=O)C1c2ccccc2CSc2ccccc21 (centres unmarked), which “hERG current change (%, negative = inhibition) at 10uM” value is on record?
Answer: 3.14%

Question: Which “hERG current change (%, negative = inhibition) at 10uM” value does the source give for CCOC(CNC(=O)Cc1c(C)nc2c(-c3ccccc3)c(C)nn2c1C)OCC here?
Answer: -20.5%

Question: For COc1ccc(C(=O)NCc2nnc(SCC(=O)N3CCCC3)o2)cc1OC, which “hERG current change (%, negative = inhibition) at 10uM” value is on record?
Answer: 25.6%

Question: COc1ccc(N2CCN(CC(=O)c3c(C)n(C)c4ccc(OC)cc34)CC2)cc1 was tested. Which “hERG current change (%, negative = inhibition) at 10uM” value did it give?
Answer: -4.1%

Question: With CCOc1cc(C(=S)N2CCCC2)ccc1OCC(=O)Nc1c(C)cc(C)cc1C as the molecule, how does the “hERG current change (%, negative = inhibition) at 10uM” value read?
Answer: 16.5%

Question: For C=CCNC(=S)/N=c1/ccccn1CC, which “hERG current change (%, negative = inhibition) at 10uM” value is on record?
Answer: 23.1%

Question: Which “hERG current change (%, negative = inhibition) at 10uM” value does the source give for CCN(CC(=O)NCc1ccc(Cl)cc1)C(=O)c1cc(S(=O)(=O)NCc2ccccc2)ccc1C here?
Answer: -25.6%

Question: For Cl.O=C(CSC1=NCCN1)Nc1cccc([N+](=O)[O-])c1, which “hERG current change (%, negative = inhibition) at 10uM” value is on record?
Answer: -7.56%

Question: For O=C(CN(Cc1ccc(F)cc1)C(=O)CNS(=O)(=O)c1ccc(F)cc1)NCC1CCCO1 (centres unmarked), which “hERG current change (%, negative = inhibition) at 10uM” value is on record?
Answer: 4.02%

Question: For COc1cc(OC)cc(C(=O)N2CCC(C(=O)Nc3ccc4c(c3)OCCO4)CC2)c1, which “hERG current change (%, negative = inhibition) at 10uM” value is on record?
Answer: 2.48%

Question: For Oc1[nH]c2ccccc2c1N=NC(=S)NCC1CCCO1 (centres unmarked), which “hERG current change (%, negative = inhibition) at 10uM” value is on record?
Answer: 12.7%

Question: With C=CCNc1nc(NCC)nc(N2CCOCC2)n1 as the molecule, how does the “hERG current change (%, negative = inhibition) at 10uM” value read?
Answer: -0.791%

Question: With O=C1NC2(CCCC2)N=C1c1ccc(Cl)cc1 as the molecule, how does the “hERG current change (%, negative = inhibition) at 10uM” value read?
Answer: -7.77%

Question: With O=C(NC1CCSC1)c1cccc(Cl)c1 (centres unmarked) as the molecule, how does the “hERG current change (%, negative = inhibition) at 10uM” value read?
Answer: 16.4%

Question: With COc1ccccc1-n1c(C)nnc1SCC(N)=O as the molecule, how does the “hERG current change (%, negative = inhibition) at 10uM” value read?
Answer: 15.4%

Question: COc1ccc(N2CCN(C(=O)c3c(Cl)cnn3C)CC2)cc1 was tested. Which “hERG current change (%, negative = inhibition) at 10uM” value did it give?
Answer: 4.26%

Question: How did the “hERG current change (%, negative = inhibition) at 10uM” value turn out when Cc1nc2c(-c3ccc(Cl)cc3)cnn2c2c1CCC2 was run?
Answer: 1.41%

Question: With COc1ccc2nccnc2c1[N+](=O)[O-] as the molecule, how does the “hERG current change (%, negative = inhibition) at 10uM” value read?
Answer: 21.2%

Question: With CCC(=O)NC(=S)Nc1cc(C(=O)O)ccc1OC as the molecule, how does the “hERG current change (%, negative = inhibition) at 10uM” value read?
Answer: 15%

Question: Which “hERG current change (%, negative = inhibition) at 10uM” value does the source give for CCCNC(=O)COC(=O)c1n[nH]c2ccccc12 here?
Answer: 15.1%

Question: With CC1C/C(=N\NC(=S)NC(C)C)CC(C)(C)C1 (centres unmarked) as the molecule, how does the “hERG current change (%, negative = inhibition) at 10uM” value read?
Answer: 9.06%

Question: Cc1c(NC(=O)CN2C(=O)NC3(CCCCC3)C2=O)c(=O)n(-c2ccccc2)n1C was tested. Which “hERG current change (%, negative = inhibition) at 10uM” value did it give?
Answer: 0.855%

Question: How did the “hERG current change (%, negative = inhibition) at 10uM” value turn out when CC(C)C[C@@H](C(=O)NC1CC1)N1C(=O)N2CCc3c([nH]c4ccccc34)[C@@]2(C)C1=O was run?
Answer: -15%

Question: How did the “hERG current change (%, negative = inhibition) at 10uM” value turn out when CCOC(=O)N1CCC(N2Cc3cccc(C(=O)NC(C)c4ccc5c(c4)OCCO5)c3C2=O)CC1 (centres unmarked) was run?
Answer: -67.5%

Question: With COc1ccc(NS(=O)(=O)c2cccs2)cc1S(=O)(=O)N1CCOCC1 as the molecule, how does the “hERG current change (%, negative = inhibition) at 10uM” value read?
Answer: 9.23%
